Reference: PMC9911399, “Two distinct binding modes provide the RNA-binding protein RbFox with extraordinary sequence specificity”
Numbering of substitutions follows the chain as printed; changes in the protein carry UniProt numbers. This is one part of the list.

T1: RBFOX1 RRM (Homo sapiens, UniProt Q9NWB1 109-208)
T1 sequence: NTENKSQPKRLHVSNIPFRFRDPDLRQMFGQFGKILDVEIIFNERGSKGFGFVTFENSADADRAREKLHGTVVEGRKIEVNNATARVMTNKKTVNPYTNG

B1: CCAGAAC (DNA:RNA)
RNA: GGGAGACCGGAAUUCAGAUUGUCCCCAGAACUUAAAUCCCGUCGUAGCCACCA
DNA 1: CAATCTGAATTCCGGTCTCCC
DNA 2: TGGTGGCTACGACGGGATT
B2: GUUACAA (DNA:RNA)
RNA: B1 RNA with C25G, C26U, A27U, G28A, A29C, C31A
DNA 1: CAATCTGAATTCCGGTCTCCC
DNA 2: TGGTGGCTACGACGGGATT
B3: CCAUUAC (DNA:RNA)
RNA: B1 RNA with G28U, A29U
DNA 1: CAATCTGAATTCCGGTCTCCC
DNA 2: TGGTGGCTACGACGGGATT
B4: UUAUCAA (DNA:RNA)
RNA: B1 RNA with C25U, C26U, G28U, A29C, C31A
DNA 1: CAATCTGAATTCCGGTCTCCC
DNA 2: TGGTGGCTACGACGGGATT
B5: GCUCCGA (DNA:RNA)
RNA: B1 RNA with C25G, A27U, G28C, A29C, A30G, C31A
DNA 1: CAATCTGAATTCCGGTCTCCC
DNA 2: TGGTGGCTACGACGGGATT
B6: CUGCGGG (DNA:RNA)
RNA: B1 RNA with C26U, A27G, G28C, A29G, A30G, C31G
DNA 1: CAATCTGAATTCCGGTCTCCC
DNA 2: TGGTGGCTACGACGGGATT
B7: GCUAUGU (DNA:RNA)
RNA: B1 RNA with C25G, A27U, G28A, A29U, A30G, C31U
DNA 1: CAATCTGAATTCCGGTCTCCC
DNA 2: TGGTGGCTACGACGGGATT
B8: UUACGAG (DNA:RNA)
RNA: B1 RNA with C25U, C26U, G28C, A29G, C31G
DNA 1: CAATCTGAATTCCGGTCTCCC
DNA 2: TGGTGGCTACGACGGGATT
B9: CACGGAG (DNA:RNA)
RNA: B1 RNA with C26A, A27C, A29G, C31G
DNA 1: CAATCTGAATTCCGGTCTCCC
DNA 2: TGGTGGCTACGACGGGATT
B10: GUUAGUA (DNA:RNA)
RNA: GGGAGACCGGAAUUCAGAUUGUCCGUUAGUAUUAAAUCCCGUCGUAGCCACCA
DNA 1: CAATCTGAATTCCGGTCTCCC
DNA 2: TGGTGGCTACGACGGGATT
B11: GCUAUGC (DNA:RNA)
RNA: B10 RNA with U26C, G29U, U30G, A31C
DNA 1: CAATCTGAATTCCGGTCTCCC
DNA 2: TGGTGGCTACGACGGGATT
B12: UCCCAGG (DNA:RNA)
RNA: B1 RNA with C25U, A27C, G28C, A30G, C31G
DNA 1: CAATCTGAATTCCGGTCTCCC
DNA 2: TGGTGGCTACGACGGGATT
B13: AUGCGUG (DNA:RNA)
RNA: B10 RNA with G25A, U27G, A28C, A31G
DNA 1: CAATCTGAATTCCGGTCTCCC
DNA 2: TGGTGGCTACGACGGGATT
B14: AUAAGUA (DNA:RNA)
RNA: B10 RNA with G25A, U27A
DNA 1: CAATCTGAATTCCGGTCTCCC
DNA 2: TGGTGGCTACGACGGGATT
B15: GUAGUAA (DNA:RNA)
RNA: B1 RNA with C25G, C26U, A29U, C31A
DNA 1: CAATCTGAATTCCGGTCTCCC
DNA 2: TGGTGGCTACGACGGGATT
B16: GCUUCUC (DNA:RNA)
RNA: B10 RNA with U26C, A28U, G29C, A31C
DNA 1: CAATCTGAATTCCGGTCTCCC
DNA 2: TGGTGGCTACGACGGGATT
B17: CAAAUGC (DNA:RNA)
RNA: B1 RNA with C26A, G28A, A29U, A30G
DNA 1: CAATCTGAATTCCGGTCTCCC
DNA 2: TGGTGGCTACGACGGGATT
B18: CAACAAC (DNA:RNA)
RNA: B1 RNA with C26A, G28C
DNA 1: CAATCTGAATTCCGGTCTCCC
DNA 2: TGGTGGCTACGACGGGATT
B19: AGAGGCC (DNA:RNA)
RNA: B1 RNA with C25A, C26G, A29G, A30C
DNA 1: CAATCTGAATTCCGGTCTCCC
DNA 2: TGGTGGCTACGACGGGATT
B20: GUAAGCU (DNA:RNA)
RNA: B10 RNA with U27A, U30C, A31U
DNA 1: CAATCTGAATTCCGGTCTCCC
DNA 2: TGGTGGCTACGACGGGATT

Biological target: T1, RBFOX1 RRM
Assay: EMSA; HiTS-Eq, 1 nM pool, 10 min; buffer printed only for the single-RNA assays: 10 mM Tris pH 7.5, 150 mM NaCl, 3.4 mM EDTA, 0.001% NP-40, 30 C
Conditions: tags: His6 N-terminal (pET28a); label: 5' 32P
How it was run: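 Purified RbFox RRM, wild type or mutant, was incubated for 10 min in 50 µL with 1 nM of a 5′-radiolabelled RNA pool carrying 7 randomized nucleotides, whose flanks were annealed to DNA oligonucleotides, over a series of increasing protein concentrations. Unbound RNA was resolved on 8% native PAGE, cut out, reverse-transcribed, barcoded by PCR and sequenced on an Illumina HiSeq 2500. Relative association constants were derived from changes in read counts for each RNA species versus the control reaction and normalised to the cognate motif.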

| Binder | binding signal |
| --- | --- |
| B1 | 0.000363 KA relative to UGCAUGU |
| B2 | 0.00535 KA relative to UGCAUGU |
| B3 | 0.000135 KA relative to UGCAUGU |
| B4 | 0.00283 KA relative to UGCAUGU |
| B5 | 0.0205 KA relative to UGCAUGU |
| B6 | 0.013 KA relative to UGCAUGU |
| B7 | 0.015 KA relative to UGCAUGU |
| B8 | 0.00972 KA relative to UGCAUGU |
| B9 | 0.00829 KA relative to UGCAUGU |
| B10 | 0.009 KA relative to UGCAUGU |
| B11 | 0.0178 KA relative to UGCAUGU |
| B12 | 0.00343 KA relative to UGCAUGU |
| B13 | 0.0226 KA relative to UGCAUGU |
| B14 | 0.00457 KA relative to UGCAUGU |
| B15 | 0.00703 KA relative to UGCAUGU |
| B16 | 0.0177 KA relative to UGCAUGU |
| B17 | 0.00466 KA relative to UGCAUGU |
| B18 | 0.000499 KA relative to UGCAUGU |
| B19 | 0.0118 KA relative to UGCAUGU |
| B20 | 0.00888 KA relative to UGCAUGU |
